In patent US20050282843A1, “Therapeutic applications of 2-substituted 4-heteroarylpyrimidines” (priority 2002, published 2005):

Tests used:
[1] = system: GSK-3β; assay: GSK-3β kinase assay (phosphorylation of CREB phosphopeptide); type: biochemical, rabbit; conditions: ratio of IC50 values
Experimental: (§1) GSK-3 was obtained from New England Biolabs (UK) Ltd., Hitchin, Herts. The recombinant enzyme was isolated from a strain of E. coli that carries a clone expressing GSK-3β derived from a rabbit skeletal muscle cDNA library [Wang, Q. M.; Fiol, C. […] The samples were transferred to 96-well p81 filter plates (Whatman Polyfiltronics, Kent, UK), and the plates were washed 4 times with 200 μL/well of 75 mM aq orthophosphoric acid.

[2] = target: GSK-3β (Oryctolagus cuniculus, UniProt G1T8E2); assay: as above; type: biochemical, rabbit; conditions: read-out: Kinase inhibition IC50 GSK3β
Experimental: as §1

[3] = target: T1, CDK2/cyclin E (Homo sapiens, UniProt P24941); assay: CDK/cyclin kinase assay, CDK2/cyclin E; type: biochemical; conditions: read-out: Kinase inhibition IC50 CDK2/E
T1 construct: His6; made in house; host or cells: Sf9 insect cells (baculovirus)

[4] = system: cellular glycogen synthase activity in HEK293 cells; assay: Glycogen synthase (GS) assay in HEK293 cells; type: cell-based, human; conditions: In HEK293 cells at [compound] = 5 μM; over control samples
Experimental: Cells on 10 cm dishes (Human Embryonic Kidney (HEK) 293 cells, L6 rat myocytes, or 3T3 mouse adipocytes) were treated with different concentrations of GSK3-inhibitors or DMSO vehicle for 90 min. Incubation medium was removed and cells were washed with ice-cold phosphate-buffered saline (PBS) prior to lysis on ice in 50 mM HEPES, pH 7.5, 10 mM EDTA, 100 mM NaF, 5 mM DTT, protease inhibitor cocktail (Sigma). After a freeze/thaw cycle the samples are sonicated for 10 sec and centrifuged at 15,000 g for 10 min at 4° C. Lysate supernatants were snap-frozen on liquid nitrogen and stored at −80° C. Lysates were assayed for glycogen synthase activity in buffer (50 mM Tris-HCl, pH 7.8, 20 mM EDTA, 25 mM NaF, 5 mM DTT, 1% glycogen, 0.3 mM UDP-glucose and 0.06 μCi of [^14C]-UDP-glucose in the presence of 0.1 or 10 mM glucose-6-phosphate. The reaction was carried out for 30 min at 30° C. 70 μL of the reaction mixture (total volume 90 μL) were transferred to a GFC 96-well filter plate (bottom sealed with foil), containing 140 μL 96% ethanol. The GFC plate was incubated for 1 h on ice and than washed with 66% ethanol. To each well 100 μL scintillant liquid was added and the radioactivity of the samples was measured using a scintillation counter (Topcount, HP). Data are expressed as -fold increase in glycogen synthase activity ratios over those of control samples.

[5] = target: CDK4/cyclin D1 (Homo sapiens, UniProt P11802); assay: CDK/cyclin kinase assay, CDK4/cyclin D1
[6] = target: CDK2/cyclin A (Homo sapiens, UniProt P24941); assay: CDK/cyclin kinase assay, CDK2/cyclin A
[7] = target: CDK1/cyclin B1 (Homo sapiens, UniProt P06493); assay: CDK/cyclin kinase assay, CDK1/cyclin B1
CDK1/cyclin B1, sequence (P06493 whole entry): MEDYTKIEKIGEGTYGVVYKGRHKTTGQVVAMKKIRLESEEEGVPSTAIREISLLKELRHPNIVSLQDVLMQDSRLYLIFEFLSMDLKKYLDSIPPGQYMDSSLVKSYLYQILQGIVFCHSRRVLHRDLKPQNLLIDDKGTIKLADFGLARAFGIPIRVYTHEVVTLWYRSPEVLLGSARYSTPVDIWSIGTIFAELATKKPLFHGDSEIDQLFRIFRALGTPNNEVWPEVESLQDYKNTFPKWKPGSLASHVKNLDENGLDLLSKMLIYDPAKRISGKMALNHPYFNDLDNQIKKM
CDK1/cyclin B1, sequence (P14635 whole entry partner): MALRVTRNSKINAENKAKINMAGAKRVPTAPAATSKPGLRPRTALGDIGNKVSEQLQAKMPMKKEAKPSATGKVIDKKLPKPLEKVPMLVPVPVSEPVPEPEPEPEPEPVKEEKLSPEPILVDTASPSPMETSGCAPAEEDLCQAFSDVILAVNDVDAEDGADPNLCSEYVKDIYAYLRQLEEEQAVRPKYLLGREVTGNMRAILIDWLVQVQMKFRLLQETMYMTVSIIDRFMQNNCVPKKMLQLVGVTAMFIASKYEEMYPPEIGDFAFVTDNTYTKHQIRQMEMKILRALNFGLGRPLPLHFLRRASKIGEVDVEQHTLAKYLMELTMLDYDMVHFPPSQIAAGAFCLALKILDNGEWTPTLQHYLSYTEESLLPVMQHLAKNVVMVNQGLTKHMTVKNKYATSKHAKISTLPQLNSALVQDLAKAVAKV

CDK4/cyclin D1, sequence (P11802 whole entry): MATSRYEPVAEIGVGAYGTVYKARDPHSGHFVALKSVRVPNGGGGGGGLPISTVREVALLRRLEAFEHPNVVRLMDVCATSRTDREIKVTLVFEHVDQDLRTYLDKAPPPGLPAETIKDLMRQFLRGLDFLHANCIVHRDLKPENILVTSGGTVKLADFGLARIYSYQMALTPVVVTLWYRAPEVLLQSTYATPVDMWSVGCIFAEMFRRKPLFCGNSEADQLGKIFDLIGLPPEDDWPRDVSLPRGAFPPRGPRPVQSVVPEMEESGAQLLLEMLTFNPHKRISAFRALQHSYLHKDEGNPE
CDK4/cyclin D1, sequence (P24385 whole entry partner): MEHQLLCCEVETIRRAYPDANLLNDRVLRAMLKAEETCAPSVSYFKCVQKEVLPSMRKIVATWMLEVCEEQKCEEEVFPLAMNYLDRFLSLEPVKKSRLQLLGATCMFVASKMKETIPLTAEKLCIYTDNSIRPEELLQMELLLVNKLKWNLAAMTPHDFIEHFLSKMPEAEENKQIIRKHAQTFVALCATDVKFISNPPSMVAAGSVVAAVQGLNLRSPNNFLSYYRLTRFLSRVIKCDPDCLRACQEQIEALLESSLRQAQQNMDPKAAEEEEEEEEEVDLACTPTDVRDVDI
GSK-3β, sequence (G1T8E2 1-432): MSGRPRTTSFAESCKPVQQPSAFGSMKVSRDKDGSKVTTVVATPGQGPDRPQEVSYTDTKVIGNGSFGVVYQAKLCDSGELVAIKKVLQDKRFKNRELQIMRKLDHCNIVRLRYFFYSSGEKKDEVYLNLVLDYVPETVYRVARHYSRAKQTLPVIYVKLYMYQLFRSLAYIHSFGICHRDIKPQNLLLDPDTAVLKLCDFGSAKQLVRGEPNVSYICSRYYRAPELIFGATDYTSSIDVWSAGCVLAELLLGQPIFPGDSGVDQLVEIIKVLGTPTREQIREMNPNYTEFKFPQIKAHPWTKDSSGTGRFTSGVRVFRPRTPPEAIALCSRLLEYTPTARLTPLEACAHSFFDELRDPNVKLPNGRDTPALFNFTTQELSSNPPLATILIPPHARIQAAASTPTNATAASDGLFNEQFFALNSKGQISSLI

Selectivity, IC50 (CDK2/E)/IC50 (GSK3β) [1]	IC50 [2] [nM]	IC50 [3] [nM]	-Fold induction of GS activity [4]	IC50 [5] [nM]	IC50 [6] [nM]	IC50 [7] [nM]	SMILES
0.01	–	–	–	–	–	–	Cc1[nH]c(CN(C)C)c(C)c1-c1ccnc(Nc2ccc(F)cc2)n1 [Compound 19, [4-(5-Dimethylaminomethyl-2,4-dimethyl-1H-pyrrole-3-yl)-pyrimidin-2-yl]-(4-fluoro-phenyl)-amine]
2.2	340	760	2.8 -fold	2070	–	–	Cc1ccc(Nc2nccc(-c3c(C)[nH]c(C#N)c3C)n2)cc1F [Compound 22, 4-[2-(3-Fluoro-4-methyl-phenylamino)-pyrimidin-4-yl]-3,5-dimethyl-1H-pyrrole-2-carbonitrile]
–	30	290	–	2900	740	1960	Cc1c(-c2ccnc(Nc3ccc(Cl)cc3)n2)sc(=O)n1C [Compound 23, 5-[2-(4-Chloro-phenylamino)-pyrimidin-4-yl]-3,4-dimethyl-3H-thiazol-2-one]
